# According to the RNAGym collection of RNA variant scans (doi:10.1093/nar/gkz1192):
# The source gives no read counts; variants with many changes may rest on few reads.
# B1: CPEB3 Ribozyme (parent)
# chain: UAACAGGGGGCCACAGCAGAAGCGUUCACGUCGCAGCCCCUGUCAGAUUCUGGUGAAUCUGCGAAUUCUGCUGUAUAUCUC
# Variants of: B1
# Experiment: self-cleavage, relative activity (ratio to wild type); higher = more cleavage; in vitro, sequencing
# Outline: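 Relative activity was defined as the cleaved/total read fraction for a variant divided by the same fraction for the unmutated ribozyme. CPEB3 self-cleaving ribozyme libraries were made by rounds of error-prone PCR, barcoded, and transcribed in vitro with T7 RNA polymerase for 5 hours at 37°C, and cleavage ran through transcription plus a 15 min DNase I step before EDTA. Illumina sequencing of template-switched reverse transcripts gave the reads, and DNA sequencing mapped the barcodes. Averages come from three batches, using variants with at least 5 reads.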
row,Variant,self-cleavage
1,A5G A15U A28C A35U,0.38
2,A5G C11G A13G A18G U67C U69A,0.3
3,A5G C29U U49A C62A U69G U78C,0.16
4,A5G C17U U43C U54C U67C,0.03
5,A5G C34G U78C,0.36
6,A5G G6C G7A C23G U25C U49A,0.28
7,A5G G9A A18U A20G U67A U69C C71U,0.18
8,A5G A35U A47U,0.32
9,A5G A13U A45G A57G U72C,0.18
10,A5G A45U A47G U66C,0.29
11,A5C G8A G36U,0.47
12,A5C C37A U51C A77G,0.34
13,A5G A20U C29U C38U U60A A65G A75U,0.03
14,A5G A13G A35U U78C,0.32
15,C4U U25C A45G A65G G73A,0.09
16,A5G C34A C50U,0.38
17,A5C C11U A56C A57G U80C,0.08
18,A5C C29U A35U U43A,0.2
19,A5G A45U A56G U58C A75G,0.07
20,A5G C59U A77G C81U,0.45
21,A5G G19A U25C U31A G61U U72A U78C,0.14

row,Variant,self-cleavage
1,A5G G6C U43C A56G A64G U69A,0.05
2,A5G G7A C40G A45G U49A,0.28
3,A5C A15U A18G U25C U69C,0.27
4,A5G A56U A57G U60C A64U,0.08
5,C4U U41A A64G,0.26
6,A5C A18G U25C U54A A57G,0.07
7,A5G G7A A13U U26A,0.27
8,A5G A21G C40U C81U,0.81
9,A5G A21G U26A U67C,0.34
10,A5G G30C A35G A64G,0.08
11,A5G G9A C23U,0.64
12,A5C C12A A15U U54C,0.81
13,A5G A13G A35U,0.74
14,A5G A15G U54G G73A,0.57
15,A5C A45U U60C U72C,0.56
16,A5C G8U U80C,0.36
17,A5G G10U U25A U43C A45U U48A,0.04
18,A5C U26A U51C U80C,1.04
19,C4U G30U U41A,0.29
20,A5G A18G A28G U66C,0.41
21,A5G A20G U26C A56G G73A,1.03

row,Variant,self-cleavage
1,A5G A18U G33U A35G A45G U54C,0.27
2,A5G G8A A28G A75G,0.09
3,A5G A15G U51A C59U U72C,0.42
4,A5C U31G U67G,0.11
5,A5G C17U A18G C38U U41C U66C U78C,0.16
6,A5G C11G A20G U26C,0.47
7,A5G C38A A65G U67C,0.25
8,A5C A15G A64G,0.83
9,A5G A20G U25C A28U U48C U49A C68U,0.11
10,A5G A18U U43A U60A,0.16
11,A5C A57U U58A U60C C81U,0.37
12,A5C A28G U31A C32U U60G,0.08
13,A5C C32U U74C A75G,0.51
14,A5G G19A A45U,0.39
15,A5C A20G U43C A45G U72C U78A U80C,0.22
16,A5C A35U U67C U72C,0.2
17,C4U U41C U60A,0.91
18,A5G A15G A35G A57G G73A,0.88
19,A5G C32A G53A G61A,0.1
20,A5G A21U A35U U48C U67A,0.04
21,A5G C14A C23U C38G U41A A64U,0.11

row,Variant,self-cleavage
1,A5G A18G A35U U69A,0.25
2,A5G C40U U74C,0.8
3,A5G G8A U26C A28U A75U,0.05
4,A5G A35U A45G G61A A65G,0.08
5,C4U U51C A65G,0.78
6,C4U G9C A35U,0.29
7,A5G A28G U54C U67C A77U,0.13
8,A5G A56C U58A U72C,0.17
9,A5G A13U A15G A18U A35G U67C C81A,0.25
10,C4U U66C U72C U74A,0.65
11,A5G A20G U41G A45G U58C,0.32
12,A5G A20C A57G U72G,0.11
13,A5G C11G U25C A28G G52A,0.24
14,A5G G6A A13C,0.17
15,A5G G6A U26A U66C U80C,0.19
16,C4U U25A C32U U43C,0.13
17,A5G A56C U72C,0.53
18,A5G A18G U58C A64U U67A U72C,0.17
19,A5G C11A A64U,0.27
20,A5G G6A C59A C62A,0.16
